In all, about 39,000 compounds went through this assay and about 220 (0.56%) showed activity. The list shows a part of the results.

Data on 59 compounds can be found in the supplement of paper PMC9446081.
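Note: static incubation at 37 °C against the wild-type strain, values averaged over two biological replicates.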

For the assay, the system named is Escherichia coli K-12 BW25113. As to the kind of experiment: relative growth (OD600 normalised to plate interquartile mean) (fraction); higher = less growth inhibition, active = 0.2 or less. Conditions: 50 µM; LB; incubation time: overnight (16-24 h).
On to `C[C@@H]1CCCCO[C@H](CN(C)C(=O)Nc2ccc(C(F)(F)F)cc2)[C@H](C)CN([C@H](C)CO)C(=O)c2cc(NC(=O)Nc3cccc4ccccc34)ccc2O1`, for which the relative growth was inactive: 1. For `C[C@@H]1CN([C@H](C)CO)S(=O)(=O)c2ccc(C#Cc3ccncc3)cc2O[C@@H]1CN(C)S(=O)(=O)c1ccc(F)cc1` the value was inactive: 1.01. Consider `NCCNC1=NS(=O)(=O)c2ccccc21`, for which the relative growth is inactive: 0.818. Regarding `C[C@H](CO)N1C[C@H](C)[C@@H](CN(C)Cc2ccccc2)OCCCC[C@H](C)Oc2ccc(NS(=O)(=O)c3ccccc3)cc2C1=O`, the relative growth is inactive: 0.981. Take `C[C@H]1CCCCO[C@H](CN(C)CC2CCCCC2)[C@@H](C)CN([C@@H](C)CO)C(=O)c2cc(NS(=O)(=O)c3ccc(Cl)cc3)ccc2O1`: the relative growth is inactive: 0.977.

As to `COc1ccc(CN(C)C[C@H]2OCCCC[C@H](C)Oc3ccc(NC(=O)NC(C)C)cc3C(=O)N([C@@H](C)CO)C[C@H]2C)cc1`, the relative growth is inactive: 0.941. In the case of `COCC(=O)N1C[C@H](C)[C@@H](OC)CN(C)C(=O)c2ccc(NC(=O)c3ccc(OC)cc3)cc2OC[C@H]1C`, the relative growth is inactive: 0.983. For the compound `O=C(C[C@H]1CC[C@@H]2[C@H](COC[C@H](O)CN2C(=O)c2cccnc2)O1)NCc1ccc(-c2ccccc2)cc1`, the relative growth is inactive: 1.03. For `CCCN(CCC)C(=O)C(CCC(=O)O)NC(=O)c1ccccc1` (centres undefined) the value was inactive: 0.944; for `C[C@H](CO)N1C[C@H](C)[C@@H](CN(C)C(=O)c2ccc3c(c2)OCO3)Oc2ncc(C#CCN(C)C)cc2C1=O`, inactive: 0.978; for `COCC(=O)Nc1ccc2c(c1)OC[C@H](C)N(Cc1ccccc1F)C[C@@H](C)[C@@H](OC)CN(C)C2=O`, inactive: 0.984. `C[C@@H]1CN([C@@H](C)CO)C(=O)c2cccc(NC(=O)c3ccc(-c4nccs4)cc3)c2O[C@H]1CN(C)C(=O)Nc1ccc(F)cc1`: the relative growth is inactive: 0.994. For `O=C(C[C@H]1CC[C@H]2[C@@H](COC[C@@H](O)CN2C(=O)Nc2ccc(Cl)c(Cl)c2)O1)NCc1ccc(Cl)c(Cl)c1` the value was inactive: 0.991; for `C[C@@H]1CN([C@H](C)CO)C(=O)c2cc(NC(=O)CCC(F)(F)F)ccc2O[C@H]1CN(C)S(=O)(=O)c1cn(C)cn1`, inactive: 0.861. Consider `C[C@H]1CN([C@@H](C)CO)C(=O)c2cc(NS(=O)(=O)c3ccc(Cl)cc3)ccc2O[C@H]1CN(C)Cc1ccc(C(=O)Nc2ccccc2N)cc1`, for which the relative growth was inactive: 1.02. Take `CC1C=CC=CC=CC=CC=CC=CC=CC(OC2OC(C)C(O)C(N)C2O)CC(O)C(C(=O)O)C(O)CC(=O)CC(O)CC(O)CC(O)CC(=O)CCCC(=O)CC(=O)OC1C(C)CC(C)C(O)CC(=O)c1ccc(N)cc1` (centres undefined): the relative growth was inactive: 1.11.

On to `COc1ccccc1NC(=O)N(C)C[C@@H]1Oc2ncc(C#CCN(C)C)cc2C(=O)N([C@@H](C)CO)C[C@@H]1C`, for which the relative growth is inactive: 1.01.

As for `Cc1ccc(S(=O)(=O)Nc2ccc3c(c2)C(=O)N([C@H](C)CO)C[C@@H](C)[C@H](CN(C)Cc2ccc(C(F)(F)F)cc2)O3)cc1`, the relative growth is inactive: 1.03. For `COCC(=O)N1CC(=O)N2[C@H](CO)[C@@H](c3ccc(C#Cc4cccnc4)cc3)[C@H]2C1` the value was inactive: 1.02; for `COC(=O)c1cc(=O)n2ccccc2c1C#N`, inactive: 0.98. Under `C[C@@H]1CCCCO[C@H](CN(C)C(=O)Nc2ccc(F)cc2)[C@H](C)CN([C@H](C)CO)C(=O)c2cc(NC(=O)CCC(F)(F)F)ccc2O1` stands inactive: 1.03; under `C[C@@H]1CN([C@@H](C)CO)C(=O)c2cc(NC(=O)c3ccncc3)ccc2O[C@@H]1CN(C)C(=O)Nc1ccc2c(c1)OCO2`, inactive: 0.991.

As for `C[C@@H]1CN([C@@H](C)CO)C(=O)c2cccc(NS(C)(=O)=O)c2O[C@H]1CN(C)S(=O)(=O)c1cccs1`, the relative growth is inactive: 1.01. `C[C@H](CO)N1C[C@H](C)[C@H](CN(C)C(=O)Nc2ccccc2)Oc2c(NS(=O)(=O)c3cn(C)cn3)cccc2C1=O`: the relative growth was inactive: 0.959. As to `C[C@H](CO)N1C[C@H](C)[C@H](CN(C)Cc2ccc(C(F)(F)F)cc2)OCCCC[C@H](C)Oc2ccc(NC(=O)Nc3ccccc3)cc2C1=O`, the relative growth is inactive: 1.05. As to `C[C@@H]1CCCCO[C@@H](CN(C)S(=O)(=O)c2cn(C)cn2)[C@H](C)CN([C@@H](C)CO)C(=O)c2cc(NC(=O)Nc3cccc4ccccc34)ccc2O1`, the relative growth is inactive: 1. Turning to `C[C@H](O)C#Cc1ccc2c(c1)O[C@@H](CN(C)C(=O)CN(C)C)[C@@H](C)CN([C@H](C)CO)S2(=O)=O`, the relative growth is inactive: 0.896. Take `C[C@@H]1CN([C@H](C)CO)C(=O)c2cc(NC(=O)CCCN(C)C)ccc2O[C@H]1CN(C)S(=O)(=O)c1ccccc1`: the relative growth is inactive: 0.985. For `C[C@H](CO)N1C[C@H](C)[C@@H](CN(C)C(=O)Nc2ccc(F)cc2)OCCCC[C@H](C)Oc2ccc(NS(=O)(=O)c3ccc(Cl)cc3)cc2C1=O` the value was inactive: 1.02. For the compound `C[C@H](CO)N1C[C@H](C)[C@@H](CN(C)S(=O)(=O)c2ccccc2)Oc2c(NC(=O)c3ccncc3)cccc2C1=O`, the relative growth was inactive: 1.01.

As to `COc1ccc(NC(=O)Nc2ccc3c(c2)C(=O)N([C@@H](C)CO)C[C@@H](C)[C@@H](CN(C)S(=O)(=O)c2ccc(C)cc2)OCCCC[C@H](C)O3)cc1`, the relative growth was inactive: 1.04. For the compound `COc1ccccc1N1CCN(CC(O)COc2cccc3ccccc23)CC1` (centres undefined), the relative growth is inactive: 0.8. Consider `C[C@@H]1CCCCO[C@@H](CN(C)C(=O)Cc2ccccc2)[C@@H](C)CN([C@@H](C)CO)C(=O)c2cc(NS(=O)(=O)c3cccs3)ccc2O1`, for which the relative growth was inactive: 0.991. With `CO[C@H]1CN(C)C(=O)c2cc(NC(=O)C3CC3)ccc2OC[C@H](C)N(C(=O)CN2CCOCC2)C[C@@H]1C`, the relative growth was inactive: 0.95.

Regarding `COc1ccc(NC(=O)N(C)C[C@@H]2Oc3ccc(NS(=O)(=O)c4cn(C)cn4)cc3C(=O)N([C@H](C)CO)C[C@H]2C)cc1`, the relative growth is inactive: 0.981. Turning to `O=C(Nc1nnn[nH]1)c1cncc(N2CCCC2)n1`, the relative growth is inactive: 0.965. Under `C[C@@H]1CN([C@@H](C)CO)C(=O)Cc2cc(NC(=O)CCCN(C)C)ccc2O[C@@H]1CN(C)Cc1ccc(Oc2ccccc2)cc1` stands inactive: 0.964; under `C[C@H]1CN([C@@H](C)CO)C(=O)c2cc(NC(=O)CCN3CCOCC3)ccc2O[C@@H]1CN(C)C(=O)Nc1ccccc1`, inactive: 0.991. Take `C[C@H]1CN([C@@H](C)CO)C(=O)c2cc(NC(=O)CCCCCC(=O)Nc3ccccc3N)ccc2O[C@H]1CN(C)Cc1ccc(Cl)c(Cl)c1`: the relative growth is inactive: 0.993.

In the case of `C=CCC[C@H](Cc1ccc(F)cc1)C(=O)O[C@H](CNC(=O)[C@@H](CC=C)CC(=O)N[C@@H](CO)Cc1ccccc1)c1ccccc1`, the relative growth was inactive: 1. For `C[C@H]1CN([C@@H](C)CO)C(=O)CCCn2cc(nn2)CO[C@@H]1CN(C)Cc1ccc(C(=O)Nc2ccccc2N)cc1`, the relative growth is inactive: 0.987.

Turning to `C[C@@H]1CN([C@H](C)CO)C(=O)c2cc(NS(=O)(=O)c3cn(C)cn3)ccc2O[C@@H]1CN(C)Cc1ccccc1`, the relative growth is inactive: 0.913. For `COc1ccc(NC(=O)Nc2ccc3c(c2)C(=O)N([C@H](C)CO)C[C@H](C)[C@@H](CN(C)C(=O)Nc2ccc(F)cc2)OCCCC[C@H](C)O3)cc1`, the relative growth is inactive: 1.04.

`Cc1ccc(S(=O)(=O)N(C)C[C@H]2Oc3c(NC(=O)c4cnccn4)cccc3C(=O)N([C@@H](C)CO)C[C@@H]2C)cc1`: the relative growth is inactive: 1.03. As for `C[C@H]1CN([C@@H](C)CO)C(=O)CCCn2nncc2CO[C@@H]1CN(C)C(=O)Nc1ccc(C(F)(F)F)cc1`, the relative growth is inactive: 0.968.

With `O=C(C[C@@H]1CC[C@@H]2[C@H](COC[C@@H](O)CN2C(=O)Nc2ccc(Cl)c(Cl)c2)O1)NCc1ccncc1`, the relative growth is inactive: 0.943. Take `COCC(=O)Nc1ccc2c(c1)C(=O)N(C)C[C@H](OC)[C@@H](C)CN(C(=O)Cc1cccnc1)[C@H](C)CO2`: the relative growth was inactive: 0.988. Take `CCNC(=S)NCC1CC1`: the relative growth was inactive: 0.954. For `C[C@H](CO)N1C[C@H](C)[C@H](CN(C)S(=O)(=O)c2cn(C)cn2)OCCCC[C@H](C)Oc2ccc(NS(=O)(=O)c3cn(C)cn3)cc2C1=O` the value was inactive: 0.992. Regarding `CSCCNc1nc(SCCC(F)(F)F)nc2c1ncn2[C@@H]1O[C@H](COP(=O)(O)OP(=O)(O)C(Cl)(Cl)P(=O)(O)O)[C@@H](O)[C@H]1O`, the relative growth was inactive: 0.999. On to `COc1ccc(NC(=O)Nc2ccc3c(c2)C(=O)N([C@@H](C)CO)C[C@@H](C)[C@H](CN(C)Cc2ccc(C(F)(F)F)cc2)OCCCC[C@H](C)O3)cc1`, for which the relative growth is inactive: 0.976. Turning to `Cn1cnc(S(=O)(=O)N[C@@H]2C=C[C@@H](CC(=O)Nc3ccccc3)O[C@@H]2CO)c1`, the relative growth was inactive: 0.996. For `CC(=O)N[C@H]1CC[C@@H](CCNC(=O)C2CC2)O[C@H]1CO`, the relative growth was inactive: 0.943. With `CC(C)NC(=O)Nc1ccc2c(c1)C(=O)N([C@@H](C)CO)C[C@@H](C)[C@H](CN(C)C(=O)Nc1cccc3ccccc13)OCCCC[C@H](C)O2`, the relative growth is inactive: 1. For `COCC(=O)N1C[C@H](C)[C@@H](OC)CN(C)C(=O)c2cc(NC(=O)Nc3cccc(F)c3)ccc2OC[C@@H]1C`, the relative growth was inactive: 1.04. For `C[C@@H]1CN([C@H](C)CO)C(=O)c2cc(NS(=O)(=O)c3cn(C)cn3)ccc2O[C@@H]1CN(C)Cc1ccncc1`, the relative growth is inactive: 1.02. As for `c1ccc(Nc2ncnc3cc(-c4ccccc4)sc23)cc1`, the relative growth was inactive: 1.03.

`O=C(c1ccc(Cl)cc1)n1c2ccccc2c2ccccc21`: the relative growth was inactive: 0.995. On to `CC(C)NC(=O)N(C)C[C@@H]1Oc2ccc(NC(=O)CCC(F)(F)F)cc2C(=O)N([C@H](C)CO)C[C@@H]1C`, for which the relative growth is inactive: 0.99.
